Each structure is given as a SMILES string. The campaign covered roughly 110,000 compounds. About 230 (0.21%) showed an effect of 50% or more. The list shows a part of the results.
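Further: 30 min substrate incubation versus DMSO and 10 µM JCP410 controls.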

The target in this test is DPAP1 (Plasmodium falciparum, UniProt Q8IIJ9). The experiment in a line: primary screen, percent inhibition; read by cleavage of a fluorogenic dipeptide substrate; higher = more effect of the substance. Set-up: species or system P. falciparum D10 trophozoite lysates; single well.
Sequence of DPAP1 (Q8IIJ9 whole entry, looked up): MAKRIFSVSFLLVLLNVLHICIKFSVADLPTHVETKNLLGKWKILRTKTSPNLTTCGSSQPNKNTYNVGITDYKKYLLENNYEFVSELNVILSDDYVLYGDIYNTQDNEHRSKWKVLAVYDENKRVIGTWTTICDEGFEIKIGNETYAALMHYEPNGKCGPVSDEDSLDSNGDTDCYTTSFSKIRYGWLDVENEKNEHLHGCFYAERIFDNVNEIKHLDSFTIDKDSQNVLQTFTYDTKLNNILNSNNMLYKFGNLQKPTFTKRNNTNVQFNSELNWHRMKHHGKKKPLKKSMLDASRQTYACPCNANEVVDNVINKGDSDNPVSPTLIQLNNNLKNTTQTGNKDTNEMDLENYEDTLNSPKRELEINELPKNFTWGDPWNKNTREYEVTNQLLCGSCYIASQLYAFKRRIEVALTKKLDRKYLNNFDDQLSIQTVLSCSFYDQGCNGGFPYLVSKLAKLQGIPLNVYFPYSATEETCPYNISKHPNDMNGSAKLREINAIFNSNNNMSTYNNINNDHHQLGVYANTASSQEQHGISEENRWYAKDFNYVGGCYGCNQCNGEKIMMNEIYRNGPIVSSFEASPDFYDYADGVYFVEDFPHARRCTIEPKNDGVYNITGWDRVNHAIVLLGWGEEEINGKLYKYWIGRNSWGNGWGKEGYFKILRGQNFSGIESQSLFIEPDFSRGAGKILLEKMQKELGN
Turning to `Cc1ccc(OCC(=O)Nc2ccc(S(=O)(=O)N3CCOCC3)cc2)cc1`, the “% Inhibition @ 10 uM” value was -2.8%.
The same measure for `CC(C)(C)NC(=O)N[C@@H](CC1CCCCC1)C(=O)NCC#N`: 1.35%; for `Cc1ccc(-n2c(C34CC5CC(CC(C5)C3)C4)cn3c4c(=O)n(C)c(=O)n(C)c4nc23)cc1`: 0.503%.
Take `COC(=O)c1sc(N2C(=O)c3oc4ccc(F)cc4c(=O)c3C2c2ccc(O)cc2)nc1C` (stereo not shown): the “% Inhibition @ 10 uM” value worked out at 3.73%.
`CNC(=O)C1CCN(S(=O)(=O)c2c(C)cc(C)cc2C)CC1`: the “% Inhibition @ 10 uM” value was determined as 3.75%.
As to `CNC(=O)/C(C#N)=C/c1c(Oc2cc(C)cc(C)c2)nc2c(C)cccn2c1=O`, the “% Inhibition @ 10 uM” value is on record as -1.43%.
As for `Cc1cccc(CNC(=O)C2CCCN(S(=O)(=O)N3CCC4(CC3)OCCO4)C2)c1` (stereo not shown), the “% Inhibition @ 10 uM” value is on record as -1.6%.
Turning to `Cn1cc(-c2nnc(-c3ccccc3)o2)c2ccccc2c1=O`, the “% Inhibition @ 10 uM” value was -5.48%.
Next, `COCCN1C(=O)/C(=C\c2ccc(OCC(=O)NC(C)C)cc2)C(C(=O)OC)=C1C`: -3.4%; `CS/C(=N\C(CC1CCCCC1)C(=O)NCC#N)NS(=O)(=O)c1ccccc1` (stereo not shown): -3.14%; `O=C(CN1C(=O)C2C3C=CC(C3)C2C1=O)N1CCN(C(=O)c2ccco2)CC1` (stereo not shown): 1.26%.
As to `COc1cc2c(cc1/C=C1/NC(=O)N(Cc3ccc(F)cc3)C1=O)OCO2`, the “% Inhibition @ 10 uM” value worked out at 3.62%.
Regarding `COc1cc(-c2nnc3n(CCc4ccccc4)c(=O)c4ccccc4n23)ccc1O`, the “% Inhibition @ 10 uM” value stood at 3.3%.
Consider `Cc1cccc(C(=O)Nc2cccc(Cl)n2)c1`, for which the “% Inhibition @ 10 uM” value is -6.85%.
As for `Cc1ccc(S(=O)(=O)/N=C(\Nc2cc(C)on2)c2ccccc2)cc1`, the “% Inhibition @ 10 uM” value is -5.22%.
For `Oc1c2c(nc3nnnn13)-c1ccccc1CC21CCCC1`, the “% Inhibition @ 10 uM” value was 1.24%.
Turning to `COC(=O)C1=C(C)N(Cc2ccco2)C(=O)/C1=C\c1cc(C)n(-c2ccccc2Cl)c1C`, the “% Inhibition @ 10 uM” value came out at 1.84%.
Take `Cc1ccc(/N=C2\CCCCCN2C)c(C#N)c1`: the “% Inhibition @ 10 uM” value is -2.8%.
In the case of `O=C(CCCCn1c(=O)[nH]c2ccsc2c1=O)NCCc1c[nH]c2ccccc12`, the “% Inhibition @ 10 uM” value was -3.27%.
`Cc1cc2nc(O)c(O)nc2cc1S(=O)(=O)NCc1ccc(Cl)cc1`: the “% Inhibition @ 10 uM” value was -1.6%.
`CC(=O)c1ccc(N2CCN(Cc3cccc(Br)c3)CC2)cc1`: the “% Inhibition @ 10 uM” value is on record as -4.4%.
With `O=C(CC(NC1CCCCC1)c1ccccc1O)NC1CCCCC1` (stereo not shown), the “% Inhibition @ 10 uM” value is -1.91%.
As for `Cc1nc2ccccc2c2c1C(=O)N(c1cccnc1Cl)C2=O`, the “% Inhibition @ 10 uM” value is given as -7.33%.
On to `O=C(CCc1ccccc1)N1CCC(c2ccccc2)C1` (stereo not shown), for which the “% Inhibition @ 10 uM” value is reported as -1.06%.
Consider `Cc1cc(C)c(S(=O)(=O)N(C)CC(=O)N2CCN(c3cccc(Cl)c3)CC2)c(C)c1`, for which the “% Inhibition @ 10 uM” value was 1.19%.
For the compound `N#CSc1ccc(N/C=C2/C(=O)NC(=O)N(c3ccccc3)C2=O)cc1Cl`, the “% Inhibition @ 10 uM” value came out at 16.9%.
For the compound `COCc1cc(C)nc2c1C(=O)NC(c1ccc(OC)cc1)N2Cc1ccccc1` (stereo not shown), the “% Inhibition @ 10 uM” value is 1.84%.
Next, `Cn1c(=O)[nH]c(=O)c2c1nc(NCCO)n2Cc1ccc(Cl)cc1`: -5.6%.
Turning to `NC(=O)C1CCN(c2cc(-c3ccccc3)nc3nncn23)CC1`, the “% Inhibition @ 10 uM” value was 4.13%.
For the compound `COc1ccc(C2C3=C(O)CCCC3=NC(C)=C2C(=O)N2CCCCC2)cc1O` (stereo not shown), the “% Inhibition @ 10 uM” value came to 1.86%.
As to `Cc1c(CNC2CCCCCCC2)c(C(=O)O)c(C)n1Cc1ccccc1F`, the “% Inhibition @ 10 uM” value is reported as -3.67%.
Turning to `CCCCNC(=O)CCCn1sc2ccccc2c1=O`, the “% Inhibition @ 10 uM” value is listed as -3.53%.
Turning to `Cc1ccc(/C=c2\sc3nc(=O)c(C)nn3c2=O)o1`, the “% Inhibition @ 10 uM” value is -1.52%.
With `CCOC(=O)N1CCC(N2C(=O)c3ccccc3C2O)CC1` (stereo not shown), the “% Inhibition @ 10 uM” value is listed as -2.83%.
As to `CCOC(=O)N1CCN(C(=O)C2COc3ccccc3O2)CC1` (stereo not shown), the “% Inhibition @ 10 uM” value is -7.41%.
In the case of `N#CC1=C(N)OC2=C(C(=O)CCC2)C1c1ccccc1OCc1ccc(Br)cc1` (stereo not shown), the “% Inhibition @ 10 uM” value was -6.58%.
With `CCOC(=O)c1cc(S(=O)(=O)N2CC3CC(C2)c2cccc(=O)n2C3)cn1C` (stereo not shown), the “% Inhibition @ 10 uM” value came to 6.98%.
In the case of `CCCCN(Cc1ccccc1)Cc1ccncc1`, the “% Inhibition @ 10 uM” value is listed as -5.42%.
The same measure for `CCOc1ccc2oc(=O)cc(CN3CCOCC3)c2c1`: -3.49%.
Turning to `CCOC(=O)N1CCN(C(=O)CSc2nnc(-c3ccc(Cl)s3)o2)CC1`, the “% Inhibition @ 10 uM” value was -1.59%.
`Cc1cc(C)nc(N2CCC(C(=O)O)CC2)n1`: the “% Inhibition @ 10 uM” value was determined as 6.7%.
In the case of `O=C(Cn1ncn2c(cc3ccccc32)c1=O)NCc1ccccc1Cl`, the “% Inhibition @ 10 uM” value is -1.7%.
Regarding `COc1ccc(C2=NN(S(C)(=O)=O)C(c3cc(OC)ccc3OC)C2)cc1` (stereo not shown), the “% Inhibition @ 10 uM” value stood at 1.52%.
As for `CC(C)CC(NC(=O)c1ccc2c(c1)OCO2)C(=O)NCC#N` (stereo not shown), the “% Inhibition @ 10 uM” value is -0.778%.
Regarding `CN(C)c1nc(Cl)nc(NCCOc2ccccc2)n1`, the “% Inhibition @ 10 uM” value is recorded as -7.81%.
In the case of `CSc1ccc(/C=C2/NC(=S)NC2=O)cc1`, the “% Inhibition @ 10 uM” value was determined as 1.88%.
Next, `CCOc1cc(/C=C2\SC(=O)N(C)C2=O)ccc1OCc1ccc(C(=O)O)cc1`: -2.14%; `O=C1C2CCCN2C(c2c(F)cccc2Cl)N1c1nccs1` (stereo not shown): -0.499%.
As for `Cc1ccccc1Cn1c(SCc2ccc(C(=O)NCCN3CCCC3)cc2)nc2ccncc21`, the “% Inhibition @ 10 uM” value is on record as -1.6%.

Source of the values: publication PMC6919601, “Identification of Plasmodium dipeptidyl aminopeptidase allosteric inhibitors by high throughput screening” (PLoS ONE, 2019).
